The chains are these.
T1: TRAF2, Q12933
T1 chain: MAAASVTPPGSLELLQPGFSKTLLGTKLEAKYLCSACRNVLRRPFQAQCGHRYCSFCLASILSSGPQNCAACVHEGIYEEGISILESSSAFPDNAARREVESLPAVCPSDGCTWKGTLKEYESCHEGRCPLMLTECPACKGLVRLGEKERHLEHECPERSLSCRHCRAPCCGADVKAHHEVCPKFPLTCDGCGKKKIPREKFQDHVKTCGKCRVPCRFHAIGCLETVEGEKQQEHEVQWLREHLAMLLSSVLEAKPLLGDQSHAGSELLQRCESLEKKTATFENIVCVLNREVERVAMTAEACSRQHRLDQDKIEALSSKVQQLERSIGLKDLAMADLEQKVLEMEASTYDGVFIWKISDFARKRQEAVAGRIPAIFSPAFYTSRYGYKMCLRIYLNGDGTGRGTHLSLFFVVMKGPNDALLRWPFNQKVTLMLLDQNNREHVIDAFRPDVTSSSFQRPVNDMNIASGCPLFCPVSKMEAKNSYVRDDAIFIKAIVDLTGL

B1: traf2_out_14_149_1261 (protein)
chain: SATEKKKEALEKALKLFEELAKLLEEAIKAGSNDLDKEKLKKLVDEARKILKEQGFILGHLLAIEELLEKNKEFTKEDLEKLLELARRAAESLKVLREML
B2: traf2_out_20_3_2114 (protein)
chain: SELEKQLEEELEKAKKLLEEAAKLADPETAKVLKELAKELEESRSLSPTDRLVVVSEIRRRVLLLQQEAEKAGKKELAKVLAEAADALNRAMGLLMKIIE
B3: traf2_out_18_3_1917 (protein)
chain: SEEKRKEISEKIDEIVDEATAKAREALARGAAEHPEFRAEFERLRADLEAGAGPFGILEALAELFRRAGDEEEAEELEKFLEEKRKKLQELVDEYEKLLK
B4: traf2_out_20_38_2013 (protein)
chain: SEEEEEKKKEEELIKHAQEAYDKAEAWVAELKAAGLSVEEIAAAAKERVRALLTAHGLEEEAAELVADIDRVLDSPDAERLIVRILARAETLVFQKELQK
B5: traf2_out_17_178_1689 (protein)
chain: SKEEYRKKISELTDKLIDLTEKTGTELLEMARKDGTISEEELAALEEARRRGSNRTFLALAEKIVPKLKNSEEAQKLLEEFKKEARKLNKEIAEAYEKYE
B6: traf2_out_13_95_1221 (protein)
chain: SAEANEKLREISNEMLDRSEAVLAALREQLAPHPETAPDMDAIEAALRRQGIRAAIAQLRAAAARHPEVAALYEAAVAELEAIRREAGKRVAEVLKEDEE
B7: traf2_out_14_149_1233 (protein)
chain: SEEQKKLKAAAEINEEVAKTLEEVLKLLEEGKVEEAKKLLEKAIKELEEKGKKHGITISSLFELEEILELLEKNVEEAKKRAEEARDRAKNASEAFKEMA
B8: traf2_out_13_95_1153 (protein)
chain: SKELAEKIMEIADKMLDESLKVLEELLKIAKKKGKLVEEVTEAKHLAETRSINEAIHKLKELAKKYPEFKEELDKAIKELEELKRKAGKEVAELIKKEEE
B9: traf2_out_20_3_2062 (protein)
chain: SELEEELEEELERAEKLLEEAAKLADKETAARLKELLKRLRASRELSYDDRLVVLSEIRRELLELAEEARKRGDEELAKVLEEAAEELNEAMNLTYKIIE
B10: traf2_out_5_63_2347 (protein)
chain: SEREELTALAKKADKLAREILEAAEAGDEEKAEKLIEEAVKDPELARLVIGILKGEAKYYKLLGNKPEKAKIAEELAERLEKKVKEREEKKAKEAAKKAA
B11: traf2_out_18_167_1838 (protein)
chain: EEERLARRRELSDRLVELSELKREARAALLALETDPSTVPAELAALRAEAAKIPELAPLVDAAEAALAAGDRAALRAELEELIEEANRLANEVLAEYEAL
B12: traf2_out_12_187_969 (protein)
chain: SVEEELIRAAKEAIKAALKALKEAAPEDERFKEFLKELEALAKMLEEHPELAADATVAASLVLRAVRLFEAGAPQEEVDAAADAAAAEIAAVAKEAEALK
B13: traf2_out_13_95_1044 (protein)
chain: SKELAEKIMEIADEMEDRVLALLDAAAAQAADDPELRAVLEEARRLAETRGISEAIHLLREAAAAHPEHRALLEATIAELEAIRREAGRKVAELIKKEKE
B14: traf2_out_5_63_2349 (protein)
chain: SEREELTELARRADRAVRAALEAAKAGDEERLEAILEELVEDPELARTALGILKGLARYYELLGDKPEEAELARRLAERLEALMAEREAAEAAAAAAAAA
B15: traf2_out_6_156_2428 (protein)
chain: KVEEILKETLKEIEKLIKELAKASEEKKISYISKIAGTVYKALQKLKELGASVEEIKEFVEKVIKEAEELAKKAGLPESTINLLIGSLQAVGDVAIAEAK
B16: traf2_out_13_95_1042 (protein)
chain: SAELAEKIMEIADEMLDRTEALLAAAQAEAADDPEAVAVFDEARRLAVTKGISEAIALLRRFQEAHPEHAELAAATIEELEAIRREAGRKVAELIKKEKE
B17: traf2_out_17_162_1514 (protein)
chain: SALEEELAELEARLEELEKKLEEFEKKLENLKEMSKEELTDLLVEVSEARREARELAERLRKLKPEIGEERAEELIERAEEIAERLQRIANEIYKELEKK
B18: traf2_out_18_167_1892 (protein)
chain: SEELEKKREEASDRLVELSRARRAMRAVINAIDTDPAAAPAALAAAIAAVADDPETKAFLEAVAKQSLADQRAALEAKADELNKEANKAYEKLEELRKEL
B19: traf2_out_1_156_895 (protein)
chain: SAADKYAKELHEQLSKPEMRELLSRATDLIIRAKEVAEEAKKNPELKELRERAEKLLKEAKRLASRAINEGLKKKEEIQKELEKLEKELKKLEEELKKKL

Over roughly 1,800 sequences, “median log2 fold change of GCK-ALFA target abundance (FLAG IP / Myc IP barcode read proportion)” has its median near 0.14; the lowest 2% begin near -0.84. The list shows a part of the results.

This experiment concerns the target T1, TRAF2, Q12933. In words: median log2 fold change of GCK-ALFA target abundance (FLAG IP / Myc IP barcode read proportion) (log2 ratio); each designed protein is fused to an ALFA-tag nanobody in HEK293 cells to bring the named protein to FLAG-tagged glucokinase (GCK); Myc marks an untargeted standard; higher = target protein stabilised (more abundant). The settings on record: target protein: 3xFLAG-MCP-GCK-ALFA reporter; HEK293 landing pad (RPLP). As to the method:
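LABEL-seq trans screen in HEK293 landing-pad cells. Each de novo designed 100-aa effector handle, binding the indicated effector (E3 ligase, DUB or autophagy protein), is fused to a constant NbALFA target handle and induced with 2 ug/mL doxycycline. A FLAG-MCP-GCK-ALFA target and a Myc-MCP standard reporter were transfected, and after 48 h circRNA barcodes were recovered by anti-FLAG and anti-Myc IP and sequenced. The value is the median across barcodes (at least 3 per design) of log2(FLAG/Myc read-proportion ratio), with the two transfection replicates pooled. Negative values mean degradation and positive values mean stabilisation of the target.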
As for B1, the “median log2 fold change” value was determined as 0.166.
As for B2, the “median log2 fold change” value worked out at 0.267.
Turning to B3, the “median log2 fold change” value is -0.139.
Regarding B4, the “median log2 fold change” value was 0.298.
Consider B5, for which the “median log2 fold change” value was found to be 0.194.
B6: the “median log2 fold change” value stood at 0.0973.
As to B7, the “median log2 fold change” value came out at 0.431.
As to B8, the “median log2 fold change” value was -0.391.
With B9 the figure was 0.219; with B10, 0.216; with B11, 0.25.
Regarding B12, the “median log2 fold change” value was 0.383.
For the molecule B13, the “median log2 fold change” value was -0.409.
With B14 the figure was -0.0109; with B15, 0.185.
Consider B16, for which the “median log2 fold change” value is -0.558.
Regarding B17, the “median log2 fold change” value was determined as 0.34.
With B18, the “median log2 fold change” value was found to be 0.112.
As for B19, the “median log2 fold change” value is -0.0191.

For the origin of these results see the supplement of paper PMC12632987.
